# From the supplement of paper PMC8728848
# Some of the results follow.
# B1: Siglec-E (Mus musculus), Q91Y57 (protein)
# chain: MLLLLLLLLLWGIKGVEGQNPQEVFTLNVERKVVVQEGLCVLVPCNFSYLKKRLTDWTDSDPVHGFWYREGTDRRKDSIVATNNPIRKAVKETRNRFFLLGDPWRNDCSLNIREIRKKDAGLYFFRLERGKTKYNYMWDKMTLVVTALTNTPQILLPETLEAGHPSNLTCSVPWDCGWTAPPIFSWTGTSVSFLSTNTTGSSVLTITPQPQDHGTNLTCQVTLPGTNVSTRMTTRLNVSYAPKNLTVTIYQGADSVSTILKNGSSLPISEGQSLRLICSTDSYPPANLSWSWDNLTLCPSKLSKPGLLELFPVHLKHGGVYTCQAQHALGSQHISLSLSPQSSATLSEMMMGTFVGSGVTALLFLSVCILLLAVRSYRRKPARPAVVAPHPDALKVSVSQNPLVESQADDSSEPLPSILEAAPSSTEEEIHYATLSFHEMKPMNLWGQQDTTTEYSEIKFPQRTAWP
# Legend:
# Assay in all cases: glycan array binding signal (z-score within array); higher = stronger binding
# Settings in all cases: glycan notation: IUPAC condensed, linker removed
# [1] = target: GlcNAc(b1-3)Gal(b1-4)GlcNAc(b1-3)Gal(b1-4)GlcNAc(b1-2)Man(a1-3)[GlcNAc(b1-3)Gal(b1-4)GlcNAc(b1-3)Gal(b1-4)GlcNAc(b1-2)Man(a1-6)]Man(b1-4)GlcNAc(b1-4)GlcNAc
# Method in brief: (§1)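 Glycan array data came from 3228 arrays in the Consortium for Functional Glycomics database, and only arrays with an available protein sequence were kept. Glycan names were put into IUPAC-condensed notation, and columns mapping to the same glycan were averaged. The binding signal is a within-array Z-score, averaged across arrays of one protein sequence run at different concentrations or buffers and across linkers. A negative Z-score can be read as non-binding.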
# [2] = target: GlcNAc(b1-3)Gal(b1-4)GlcNAc(b1-3)Gal(b1-4)GlcNAc(b1-2)Man(a1-3)[GlcNAc(b1-3)Gal(b1-4)GlcNAc(b1-3)Gal(b1-4)GlcNAc(b1-2)Man(a1-6)]Man(b1-4)GlcNAc(b1-4)[Fuc(a1-6)]GlcNAc
# Method in brief: as §1
# [3] = target: GlcNAc(b1-3)Gal(b1-4)GlcNAc(b1-3)Gal(b1-4)GlcNAc(b1-2)[GlcNAc(b1-3)Gal(b1-4)GlcNAc(b1-3)Gal(b1-4)GlcNAc(b1-6)]Man(a1-6)[GlcNAc(b1-3)Gal(b1-4)GlcNAc(b1-3)Gal(b1-4)GlcNAc(b1-2)Man(a1-3)]Man(b1-4)GlcNAc(b1-4)[Fuc(a1-6)]GlcNAc
# Method in brief: as §1
# [4] = target: GlcNAc(b1-3)Gal(b1-4)GlcNAc(b1-3)Gal(b1-4)GlcNAc(b1-3)Gal(b1-4)GlcNAc(b1-2)Man(a1-3)[GlcNAc(b1-3)Gal(b1-4)GlcNAc(b1-3)Gal(b1-4)GlcNAc(b1-3)Gal(b1-4)GlcNAc(b1-2)Man(a1-6)]Man(b1-4)GlcNAc(b1-4)GlcNAc
# Method in brief: as §1
# [5] = target: GlcNAc(b1-3)Gal(b1-4)GlcNAc(b1-3)Gal(b1-4)GlcNAc(b1-3)Gal(b1-4)GlcNAc(b1-2)Man(a1-3)[GlcNAc(b1-3)Gal(b1-4)GlcNAc(b1-3)Gal(b1-4)GlcNAc(b1-3)Gal(b1-4)GlcNAc(b1-2)Man(a1-6)]Man(b1-4)GlcNAc(b1-4)[Fuc(a1-6)]GlcNAc
# Method in brief: as §1
# [6] = target: GlcNAc(b1-3)Gal(b1-4)GlcNAc(b1-3)Gal(b1-4)GlcNAc(b1-3)Gal(b1-4)GlcNAc(b1-2)[GlcNAc(b1-3)Gal(b1-4)GlcNAc(b1-3)Gal(b1-4)GlcNAc(b1-3)Gal(b1-4)GlcNAc(b1-6)]Man(a1-6)[GlcNAc(b1-3)Gal(b1-4)GlcNAc(b1-3)Gal(b1-4)GlcNAc(b1-3)Gal(b1-4)GlcNAc(b1-2)Man(a1-3)]Man(b1-4)GlcNAc(b1-4)[Fuc(a1-6)]GlcNAc
# Method in brief: as §1
# [7] = target: GlcNAc(b1-3)Gal(b1-4)GlcNAc(b1-3)Gal(b1-4)GlcNAc(b1-3)Gal(b1-4)GlcNAc(b1-3)Gal(b1-4)GlcNAc(b1-2)Man(a1-3)[GlcNAc(b1-3)Gal(b1-4)GlcNAc(b1-3)Gal(b1-4)GlcNAc(b1-3)Gal(b1-4)GlcNAc(b1-3)Gal(b1-4)GlcNAc(b1-2)Man(a1-6)]Man(b1-4)GlcNAc(b1-4)GlcNAc
# Method in brief: as §1
# [8] = target: GlcNAc(b1-3)Gal(b1-4)GlcNAc(b1-3)Gal(b1-4)GlcNAc(b1-3)Gal(b1-4)GlcNAc(b1-3)Gal(b1-4)GlcNAc(b1-2)Man(a1-3)[GlcNAc(b1-3)Gal(b1-4)GlcNAc(b1-3)Gal(b1-4)GlcNAc(b1-3)Gal(b1-4)GlcNAc(b1-3)Gal(b1-4)GlcNAc(b1-2)Man(a1-6)]Man(b1-4)GlcNAc(b1-4)[Fuc(a1-6)]GlcNAc
# Method in brief: as §1
# [9] = target: GlcNAc(b1-3)Gal(b1-4)GlcNAc(b1-3)Gal(b1-4)GlcNAc(b1-3)Gal(b1-4)GlcNAc(b1-3)Gal(b1-4)GlcNAc(b1-2)[GlcNAc(b1-3)Gal(b1-4)GlcNAc(b1-3)Gal(b1-4)GlcNAc(b1-3)Gal(b1-4)GlcNAc(b1-3)Gal(b1-4)GlcNAc(b1-6)]Man(a1-6)[GlcNAc(b1-3)Gal(b1-4)GlcNAc(b1-3)Gal(b1-4)GlcNAc(b1-3)Gal(b1-4)GlcNAc(b1-3)Gal(b1-4)GlcNAc(b1-2)Man(a1-3)]Man(b1-4)GlcNAc(b1-4)[Fuc(a1-6)]GlcNAc
# Method in brief: as §1
# [10] = target: GlcNAc(b1-3)Gal(b1-4)GlcNAc(b1-3)Gal(b1-4)GlcNAc(b1-3)GalNAc
# Method in brief: as §1
# [11] = target: GlcNAc(b1-3)Gal(b1-4)GlcNAc(b1-3)GalNAc
# Method in brief: as §1
# [12] = target: GlcNAc(b1-3)Gal(b1-4)GlcNAc(b1-3)[GlcNAc(b1-3)Gal(b1-4)GlcNAc(b1-3)]GalNAc
# Method in brief: as §1
# [13] = target: GlcNAc(b1-3)Gal(b1-4)GlcNAc(b1-6)[Gal(b1-3)]GalNAc
# Method in brief: as §1
# [14] = target: GlcNAc(b1-3)Gal(b1-4)GlcNAc(b1-6)[GlcNAc(b1-3)Gal(b1-3)]GalNAc
# Method in brief: as §1
# [15] = target: GlcNAc(b1-3)Gal(b1-4)GlcNAc(b1-6)[GlcNAc(b1-3)]Gal(b1-4)GlcNAc
# Method in brief: as §1
# GlcNAc(b1-3)GalNAc = target: GlcNAc(b1-3)GalNAc
# Method in brief: as §1
# GlcNAc(b1-3)Man = target: GlcNAc(b1-3)Man
# Method in brief: as §1
# [16] = target: GlcNAc(b1-3)[GlcNAc(b1-4)][GlcNAc(b1-6)]GlcNAc
# Method in brief: as §1
# [17] = target: GlcNAc(b1-3)[GlcNAc(b1-6)]Gal(b1-4)GlcNAc
# Method in brief: as §1
# [18] = target: GlcNAc(b1-3)[GlcNAc(b1-6)]GalNAc
# Method in brief: as §1
# [19] = target: GlcNAc(b1-4)Gal(b1-4)GlcNAc
# Method in brief: as §1
# GlcNAc(b1-4)GlcNAc = target: GlcNAc(b1-4)GlcNAc
# Method in brief: as §1
# [20] = target: GlcNAc(b1-4)GlcNAc(b1-4)GlcNAc
# Method in brief: as §1
# [21] = target: GlcNAc(b1-4)GlcNAc(b1-4)GlcNAc(b1-4)GlcNAc(b1-4)GlcNAc
# Method in brief: as §1
# [22] = target: GlcNAc(b1-4)GlcNAc(b1-4)GlcNAc(b1-4)GlcNAc(b1-4)GlcNAc(b1-4)GlcNAc
# Method in brief: as §1
# [23] = target: GlcNAc(b1-4)[GlcNAc(b1-6)]GalNAc
# Method in brief: as §1
# [24] = target: GlcNAc(b1-6)Gal(b1-4)GlcNAc
# Method in brief: as §1
# GlcNAc(b1-6)GalNAc = target: GlcNAc(b1-6)GalNAc
# Method in brief: as §1
# [25] = target: GlcNAc6S(b1-3)Gal(b1-4)GlcNAc
# Method in brief: as §1
# Kdn(a2-3)Gal(b1-3)GalNAc = target: Kdn(a2-3)Gal(b1-3)GalNAc
# Method in brief: as §1
# Kdn(a2-3)Gal(b1-3)GlcNAc = target: Kdn(a2-3)Gal(b1-3)GlcNAc
# Method in brief: as §1
# Kdn(a2-3)Gal(b1-4)Glc = target: Kdn(a2-3)Gal(b1-4)Glc
# Method in brief: as §1
# Kdn(a2-3)Gal(b1-4)GlcNAc = target: Kdn(a2-3)Gal(b1-4)GlcNAc
# Method in brief: as §1
# [26] = target: Kdn(a2-3)Gal(b1-4)[Fuc(a1-3)]GlcNAc
# Method in brief: as §1
# Kdn(a2-6)Gal(b1-4)GlcNAc = target: Kdn(a2-6)Gal(b1-4)GlcNAc
# Method in brief: as §1
# [27] = target: Man(a1-2)Man(a1-2)Man(a1-3)Man
# Method in brief: as §1
# [28] = target: Man(a1-2)Man(a1-2)Man(a1-6)[Man(a1-3)]Man
# Method in brief: as §1
# Man(a1-2)Man(a1-3)Man = target: Man(a1-2)Man(a1-3)Man
# Method in brief: as §1
binder,measurement,setting,value
B1,glycan array binding signal (z-score),[1],-0.159
same,glycan array binding signal (z-score),[2],-0.39
same,glycan array binding signal (z-score),[3],-0.336
same,glycan array binding signal (z-score),[4],-0.507
same,glycan array binding signal (z-score),[5],-0.419
same,glycan array binding signal (z-score),[6],-0.339
same,glycan array binding signal (z-score),[7],-0.508
same,glycan array binding signal (z-score),[8],-0.321
same,glycan array binding signal (z-score),[9],-0.472
same,glycan array binding signal (z-score),[10],-0.504
same,glycan array binding signal (z-score),[11],-0.29
same,glycan array binding signal (z-score),[12],-0.411
same,glycan array binding signal (z-score),[13],-0.279
same,glycan array binding signal (z-score),[14],-0.573
same,glycan array binding signal (z-score),[15],-0.633
same,glycan array binding signal (z-score),GlcNAc(b1-3)GalNAc,-0.515
same,glycan array binding signal (z-score),GlcNAc(b1-3)Man,-0.12
same,glycan array binding signal (z-score),[16],-0.115
same,glycan array binding signal (z-score),[17],-0.576
same,glycan array binding signal (z-score),[18],-0.05
same,glycan array binding signal (z-score),[19],-0.002
same,glycan array binding signal (z-score),GlcNAc(b1-4)GlcNAc,-0.058
same,glycan array binding signal (z-score),[20],-0.36
same,glycan array binding signal (z-score),[21],-0.319
same,glycan array binding signal (z-score),[22],-0.645
same,glycan array binding signal (z-score),[23],-0.418
same,glycan array binding signal (z-score),[24],-0.305
same,glycan array binding signal (z-score),GlcNAc(b1-6)GalNAc,-0.207
same,glycan array binding signal (z-score),[25],-0.437
same,glycan array binding signal (z-score),Kdn(a2-3)Gal(b1-3)GalNAc,-0.459
same,glycan array binding signal (z-score),Kdn(a2-3)Gal(b1-3)GlcNAc,-0.25
same,glycan array binding signal (z-score),Kdn(a2-3)Gal(b1-4)Glc,0.059
same,glycan array binding signal (z-score),Kdn(a2-3)Gal(b1-4)GlcNAc,-0.424
same,glycan array binding signal (z-score),[26],0.226
same,glycan array binding signal (z-score),Kdn(a2-6)Gal(b1-4)GlcNAc,-0.105
same,glycan array binding signal (z-score),[27],-0.422
same,glycan array binding signal (z-score),[28],-0.341
same,glycan array binding signal (z-score),Man(a1-2)Man(a1-3)Man,0.246
